In article PMC11968563, “Characterization of the E26H Mutant Schistosoma japonicum Glutathione S‐Transferase” (Proteins, 2025):

Molecular target: the molecule itself
Assay: native gel or EMSA; non-denaturing sample preparation and electrophoresis; precast native gel 4%-15%, Tris/glycine running buffer, Coomassie-stained; monomer and dimer bands separated

B1: E26H mutant Schistosoma japonicum glutathione S-transferase, sjGST(E26H) (enzyme)
chain: not shown
notes: glutathione S-transferase of Schistosoma japonicum (sjGST), […], with E26H, as expressed from the pGEX-4T-3 plasmid without insert; Standalone GST mutant, no fusion partner; Surmise: the pGEX-4T-3 vector adds a few C-terminal residues (thrombin site and multiple cloning site); also called E26H mutant sjGST; the mutant
Q: With B1 as the protein, how does the “stoichiometry N” value read?
A: Its value is 2.
